Among all 39,000 compounds or so, about 220 (0.56%) showed activity. The list shows a part of the results.
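Note: static incubation at 37 °C against the wild-type strain, values averaged over two biological replicates.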

The test system of this assay is Escherichia coli K-12 BW25113. The assay can be described thus: relative growth (OD600 normalised to plate interquartile mean) (fraction); higher = less growth inhibition, active = 0.2 or less. Conditions: 50 µM; LB; incubation time: overnight (16-24 h).
With `CCS(=O)(=O)N1C[C@]2(CN(Cc3cc(ccc3F)F)[C@H](CO)c3c2c2ccc(cc2n3C)OC)C1`, the relative growth was inactive: 1.04.
`COc1ccc(NC(=O)N(C)C[C@H]2OCCCC[C@@H](C)Oc3ccc(NS(=O)(=O)c4cccs4)cc3C(=O)N([C@@H](C)CO)C[C@@H]2C)cc1`: the relative growth was inactive: 1.
Under `Cc1ccc(S(=O)(=O)Nc2ccc3c(c2)C(=O)N([C@@H](C)CO)C[C@@H](C)[C@H](CN(C)C(=O)Nc2c(C)noc2C)OCCCC[C@@H](C)O3)cc1` stands inactive: 0.99; under `COC(=O)c1cccnc1`, inactive: 1.
For the molecule `CNC(=O)C[C@@H]1CC[C@H]2[C@@H](COC[C@H](O)CN2C(=O)c2ccccn2)O1`, the relative growth is inactive: 0.979.
For the molecule `COCC(=O)N1CC[C@]2(CC1)CN(Cc1ccc3c(c1)OCO3)[C@@H](CO)c1c2c2ccc(cc2n1C)OC`, the relative growth was inactive: 1.03.
As for `O=C(C1=C[C@@H](C2CC2)C[C@@H](OCc2ccc(CO)cc2)O1)N1CCN(Cc2ccc3c(c2)OCO3)CC1`, the relative growth is inactive: 1.
Next, `C[C@H](CO)N1C[C@H](C)[C@@H](CN(C)CC2CCOCC2)Oc2cc(C#Cc3ccccc3F)ccc2S1(=O)=O`: inactive: 1.03; `C[C@@H]1CN([C@@H](C)CO)C(=O)Cc2cc(N(C)C)ccc2O[C@@H]1CN(C)S(=O)(=O)c1ccc(Cl)cc1`: inactive: 1; `C[C@@H]1CN([C@H](C)CO)C(=O)Cc2cc(NC(=O)C3CC3)ccc2O[C@H]1CN(C)S(=O)(=O)c1ccc(Cl)cc1`: inactive: 0.987.
Next, `C[C@@H]1CN([C@@H](C)CO)C(=O)c2cccc(NS(C)(=O)=O)c2O[C@@H]1CN(C)Cc1ccc(C(=O)Nc2ccccc2N)cc1`: inactive: 1.02; `O=C(O)c1cc(N=Nc2ccc(S(=O)(=O)Nc3ccccn3)cc2)ccc1O`: inactive: 1.11.
Next, `C[C@H](CO)N1C[C@H](C)[C@H](CN(C)S(=O)(=O)c2ccc(F)cc2)OCCCC[C@H](C)Oc2ccc(NS(C)(=O)=O)cc2C1=O`: inactive: 0.985.
As for `CC1(C)C[C@H](c2nc(-c3ccccc3)cs2)CCS1`, the relative growth was inactive: 1.05.
Turning to `COc1ccc(NC(=O)Nc2ccc3c(c2)C(=O)N([C@H](C)CO)C[C@H](C)[C@H](CN(C)Cc2ccc(C(=O)Nc4ccccc4N)cc2)O3)cc1`, the relative growth was inactive: 0.962.
With `C[C@@H]1CN([C@@H](C)CO)C(=O)c2cc(NC(=O)Nc3ccc(F)cc3)ccc2O[C@@H](C)CCCCO[C@@H]1CN(C)CC1CCCCC1`, the relative growth is inactive: 0.968.
In the case of `C=CCOC(=O)[C@@H]1[C@H]2C(=O)O[C@H](c3ccccc3)[C@H](c3ccccc3)N2[C@H](c2ccc(OCCOC(=O)[C@@H]3C[C@@H]4C(=O)N[C@@H](CCCCN(C)C)C(=O)N4[C@@H]3c3ccc(O)cc3)cc2)[C@@]12C(=O)Nc1ccc(I)cc12`, the relative growth is inactive: 1.04.

Values taken from the supplement of paper PMC9446081.
